Out of some 150,000 compounds screened, about 540 (0.36%) showed an effect of 50% or more. This is one part of the list.

The assay concerns Plasmodium falciparum. Briefly: Primary screen in NF54 nanoGlo assay, in single point, at 2uM, 72h; a lower Z score goes with more inhibition. The format is functional, Erythrocyte. Particulars: timepoint 72 hour.
As usually defined, the % Inhibition is the change of the read-out against control, counted positive when it falls. For `COc1cccc(CN2CCC[C@H]2c2nn(C)c3c2COCC3)n1`, the “% Inhibition” value is on record as -2% and the Z score was found to be 0.18.

Regarding `CC(=O)N1CCc2c(c3ccccc3n2C)C1`, the “% Inhibition” value was 7% and the Z score is on record as -0.94.

With `CN(CCc1noc(C2CN(CC3CCCCC3)C2)n1)C(=O)C1CCOCC1`, the “% Inhibition” value stood at 3% and the Z score is on record as -0.41.

For `O=C(NCc1ccc(C(=O)N2CCOCC2)cc1)c1ccc2c(c1)OCO2`, the “% Inhibition” value is on record as -6% and the Z score is 1.18.

Consider `Cc1cc(Cl)ccc1OCc1nc(-c2ccc3c(c2)nnn3CCC(=O)N2CCCC2)no1`, for which the “% Inhibition” value was -12% and the Z score is given as 1.56.

In the case of `C[C@H](NC1Cc2ccccc2C1)c1nnc(N)s1`, the “% Inhibition” value is -14% and the Z score worked out at 1.81.

For `c1ncc(-c2cnn3c2OCCC3)s1`, the “% Inhibition” value is given as 4% and the Z score is reported as -0.57.

On to `COc1ccc(Oc2c(CN(CC3CC3)C(=O)c3ccccc3)c(-c3ccccc3)nn2C)cc1`, for which the “% Inhibition” value was determined as 32% and the Z score was -0.44.

`O=C(Nc1ccc2c(c1)OCO2)c1nnc(C(=O)N2CCC[C@H](C(=O)NCCN3CCCC3)C2)s1`: the “% Inhibition” value is listed as -28% and the Z score is reported as 2.51.

As to `CCc1ccc(NC(=O)c2nnc(CN(CC(C)(C)O)C(C)C)s2)cc1`, the “% Inhibition” value is reported as -5% and the Z score was 0.57.

With `O=C(Nc1ccon1)N1CCC[C@@H]1CCC1CCCCC1`, the “% Inhibition” value is recorded as -23% and the Z score came out at 3.21.

Regarding `COC1(OC)CCCC[C@@H]1NC(=O)OC1CCC1`, the “% Inhibition” value is given as -12% and the Z score came to 1.3.

For the compound `Cn1nccc1C(=O)N1CCC[C@H]1c1nc(-c2ccc(F)cc2F)no1`, the “% Inhibition” value is reported as -11% and the Z score is listed as 1.62.

On to `CCN1CCCC(NC2CCc3ncnn3C2)c2ccccc21` (centres undefined), for which the “% Inhibition” value is -1% and the Z score is given as 0.15.

Consider `CC(=O)c1c(F)cccc1N1CCN(S(C)(=O)=O)[C@@H](C)C1`, for which the “% Inhibition” value was -10% and the Z score stood at 1.33.

As for `Cc1ccccc1CS(=O)(=O)N1CC(CO)C1`, the “% Inhibition” value is recorded as -6% and the Z score was 0.67.

With `CCn1cc(C)c(C(=O)O)c1CC(=O)Nc1ccc(F)cc1`, the “% Inhibition” value is given as -11% and the Z score is given as 1.4.

On to `Cc1nc(CCCC(=O)N(C)S(=O)(=O)C(C)C)cs1`, for which the “% Inhibition” value worked out at 5% and the Z score is listed as -0.7.

As for `CC(=O)NC(C)(COc1nonc1C)COc1nonc1C`, the “% Inhibition” value worked out at 0% and the Z score is on record as 0.

Turning to `CC1CCN(C[C@@H](O)CNC(=O)C2CCCCCC2)CC1`, the “% Inhibition” value was determined as 0% and the Z score was 0.02.

`CCOc1cccc(CC(=O)N2C[C@H](Cc3ccccc3)[C@@H](O)C2)n1`: the “% Inhibition” value is listed as 1% and the Z score was -0.17.

As to `CC(C)(C)c1nc(CN2C[C@@H]3[C@H](C2)[C@H]2CC[C@@H]3O2)no1`, the “% Inhibition” value was found to be 1% and the Z score is reported as -0.17.

As to `CCCn1ncc(CN(CCOC)CC2CCN(Cc3ccccc3OC)CC2)c1C`, the “% Inhibition” value was -9% and the Z score is 1.05.

Regarding `CN1c2cc(C(=O)NCc3ccccc3)ccc2C(=O)N2CCCCC[C@H]21`, the “% Inhibition” value was 0% and the Z score is given as -0.01.

Consider `COc1cc(F)cc(F)c1S(=O)(=O)NCCc1cnoc1`, for which the “% Inhibition” value is recorded as -20% and the Z score was found to be 2.01.

Take `Cc1ccc(NS(=O)(=O)c2cc(-c3cc(C(F)(F)F)on3)ccc2C)cc1C`: the “% Inhibition” value is 1% and the Z score was -0.18.

For `O=C(C1CC1c1ccco1)N1CCN(c2ccccn2)CC1` (centres undefined), the “% Inhibition” value is -1% and the Z score is reported as 0.06.

As for `C[C@@]1(C(=O)NCc2ccc(F)cc2)CN(S(=O)(=O)c2ccccc2)CC(=O)N1C1CC1`, the “% Inhibition” value is 4% and the Z score is on record as -0.76.

Turning to `Cc1nonc1CC(=O)N1CCC[C@]1(C)Cc1ccc(Cl)s1`, the “% Inhibition” value is listed as 3% and the Z score is recorded as -0.31.

On to `C1=C([C@]23CCCN(Cc4ncc[nH]4)[C@@H]2CCOC3)CCOC1`, for which the “% Inhibition” value was determined as 3% and the Z score is given as -0.48.

With `CCn1cnnc1CN(C)CCN1CCN(c2ccccc2)CC1`, the “% Inhibition” value is recorded as -14% and the Z score amounted to 2.46.

Turning to `Cc1nn(C)c(C)c1CNC[C@@H]1CCO[C@H]1c1ccc(F)cc1`, the “% Inhibition” value is -13% and the Z score was 1.23.

On to `COC(=O)C1(NCc2coc(-c3c(F)cccc3F)n2)CCC1`, for which the “% Inhibition” value is on record as -10% and the Z score was found to be 1.05.

Take `CC(NC(=O)c1cc2c(s1)CCCCCC2)C1CCCO1` (centres undefined): the “% Inhibition” value is on record as -15% and the Z score stood at 1.38.

Take `Cc1cccc(O)c1NC(=O)c1cccn2c(Cc3ccccc3)nnc12`: the “% Inhibition” value turned out to be 0% and the Z score is recorded as -0.06.

In the case of `CS(=O)(=O)CCC(=O)N1CCCc2sccc2C1`, the “% Inhibition” value is recorded as -17% and the Z score stood at 1.53.

Turning to `Cc1ccncc1C(=O)N1CCNC[C@H]1C(=O)N1CCCC1`, the “% Inhibition” value is reported as -7% and the Z score is listed as 0.81.

For `O=S(=O)(c1ccoc1)N1CCC[C@@]2(CCOC2)C1`, the “% Inhibition” value was -15% and the Z score came out at 1.95.

As to `C[C@@H]1CN(CC(=O)NCc2cnn3cccnc23)C[C@H](C)O1`, the “% Inhibition” value is recorded as -5% and the Z score worked out at 1.07.

For the compound `COc1ccc2[nH]nc(-c3cc(-c4ccc[nH]4)nc(N)c3C#N)c2c1`, the “% Inhibition” value is reported as -26% and the Z score worked out at 2.29.

As to `COc1ccc(C(NC(=O)CN2CCn3ncnc3C2)c2ccc(OC)cc2)cc1`, the “% Inhibition” value was -10% and the Z score was 1.81.

As for `CN(C)C(=O)N1CCC(OCc2ccc(F)cc2)CC1`, the “% Inhibition” value is listed as -10% and the Z score is reported as 1.99.

These data come from ChEMBL document CHEMBL4888484, “Replenishing the malaria drug discovery pipeline: Screening and hit evaluation of the MMV Hit Generation Library 1 (HGL1) against asexual blood stage Plasmodium falciparum ,using a nano luciferase reporter read-out” (2022).
